# Reference: the supplement of paper PMC4967469
# By IC50 is meant the dose at which the fit gives 50% viability; a fit beyond the top or the lowest dose is shown as a bound at that dose. For AUC the same curve is integrated over the 256-fold range of doses and scaled to a fraction: 1 means no effect, lower means more sensitive. Any top dose called inferred was calculated from the reported fits.
# Columns and labels:
# Assay in all cases: Viability of human cancer cell lines after 72 h of drug (GDSC screen)
# Bryostatin 1 = compound: CCC/C=C/C=C/C(=O)O[C@H]1/C(=C/C(=O)OC)C[C@H]2C[C@H]([C@@H](C)O)OC(=O)C[C@H](O)C[C@@H]3C[C@H](OC(C)=O)C(C)(C)[C@](O)(C[C@@H]4C/C(=C/C(=O)OC)C[C@H](/C=C/C(C)(C)[C@]1(O)O2)O4)O3 [Bryostatin 1]; conditions: top dose 0.008 µM; top dose inferred
# Description: (§1)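 Human cancer cell lines in 384-well plates, medium with 10% serum, drug for 72 h over a 256-fold dose range (nine 2-fold or five 4-fold steps up to the top dose). Adherent lines were fixed and stained with the nucleic acid dye Syto60, suspension lines read with resazurin; signal relative to control wells, capped at 0 and 100%. One two-parameter sigmoid per drug and line, fitted in a mixed model over all curves with the slope shared within a line.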
# SGC0946 = compound: CC(C)N(CCCNC(=O)Nc1ccc(C(C)(C)C)cc1)C[C@H]1O[C@@H](n2cc(Br)c3c(N)ncnc32)[C@H](O)[C@@H]1O [SGC0946]; conditions: top dose 0.5 µM; top dose inferred
# Description: as §1
# GW-2580 = compound: COc1ccc(COc2ccc(Cc3cnc(N)nc3N)cc2OC)cc1 [GW-2580]; conditions: top dose 20 µM; top dose inferred
# Description: as §1
# Lenalidomide = compound: Nc1cccc2c1CN(C1CCC(=O)NC1=O)C2=O [Lenalidomide]; conditions: top dose 5 µM; top dose inferred
# Description: as §1
Cell Line,AUC (Bryostatin 1),IC50 (Bryostatin 1) [nM],AUC (SGC0946),IC50 (SGC0946) [nM],AUC (GW-2580),IC50 (GW-2580) [nM],AUC (Lenalidomide),IC50 (Lenalidomide) [nM]
"SKN (uterus, adherent)",0.981,> 8,0.979,> 500,0.925,> 20000,0.975,> 5000
"MFE-280 (endometrium, adherent)",0.967,> 8,0.979,> 500,0.971,> 20000,0.982,> 5000
"TOV-112D (ovary, adherent)",0.983,> 8,0.984,> 500,0.981,> 20000,0.985,> 5000
"SK-UT-1 (soft tissue, adherent)",0.989,> 8,0.988,> 500,0.983,> 20000,0.98,> 5000
"Ramos-2G6-4C10 (Burkitt lymphoma, suspension)",0.983,> 8,0.984,> 500,0.974,> 20000,0.9,4770
"MPP-89 (mesothelioma, adherent)",0.981,> 8,0.978,> 500,0.964,> 20000,0.975,> 5000
"U-2-OS (osteosarcoma, adherent)",0.984,> 8,0.984,> 500,0.985,> 20000,0.977,> 5000
"Caov-4 (ovary, adherent)",0.98,> 8,0.976,> 500,0.98,> 20000,0.98,> 5000
"NCI-H2087 (lung adenocarcinoma, semi-adherent)",0.986,> 8,0.979,> 500,0.973,> 20000,0.983,> 5000
"huH-1 (liver, adherent)",0.973,> 8,0.98,> 500,0.951,> 20000,0.984,> 5000
"DU-4475 (breast, suspension)",0.941,> 8,0.992,> 500,0.992,> 20000,0.992,> 5000
"SK-N-AS (neuroblastoma, adherent)",0.94,> 8,0.982,> 500,0.976,> 20000,0.984,> 5000
"SAT (head and neck, adherent)",0.968,> 8,0.948,> 500,0.968,> 20000,0.892,> 5000
"KON (head and neck, adherent)",0.904,> 8,0.985,> 500,0.987,> 20000,0.987,> 5000
"SW982 (soft tissue, adherent)",0.979,> 8,0.983,> 500,0.984,> 20000,0.983,> 5000
"NCI-H23 (lung adenocarcinoma, adherent)",0.987,> 8,0.977,> 500,0.975,> 20000,0.987,> 5000
"DBTRG-05MG (glioma, adherent)",0.939,> 8,0.982,> 500,0.984,> 20000,0.98,> 5000
"SCC-25 (head and neck, adherent)",0.984,> 8,0.982,> 500,0.974,> 20000,0.984,> 5000
"U-698-M (B-cell leukaemia, suspension)",0.959,> 8,0.986,> 500,0.987,> 20000,0.979,> 5000
"HDLM-2 (Hodgkin lymphoma, suspension)",0.986,> 8,0.983,> 500,0.982,> 20000,0.989,> 5000
"ONS-76 (medulloblastoma, adherent)",0.964,> 8,0.983,> 500,0.984,> 20000,0.95,> 5000
"LB1047-RCC (kidney, adherent)",0.982,> 8,0.98,> 500,0.98,> 20000,0.983,> 5000
"MFE-296 (endometrium, adherent)",0.965,> 8,0.984,> 500,0.962,> 20000,0.983,> 5000
"HCC-15 (lung squamous cell carcinoma, adherent)",0.963,> 8,0.968,> 500,0.98,> 20000,0.968,> 5000
"NCI-H520 (lung squamous cell carcinoma, adherent)",0.98,> 8,0.986,> 500,0.987,> 20000,0.987,> 5000
"MDA-MB-415 (breast, adherent)",0.972,> 8,0.913,> 500,0.954,> 20000,0.983,> 5000
"M14 (melanoma, adherent)",0.816,4.75,0.982,> 500,0.986,> 20000,0.987,> 5000
"COLO-668 (small cell lung carcinoma, adherent)",0.989,> 8,0.988,> 500,0.978,> 20000,0.975,> 5000
"HOP-92 (large cell lung carcinoma, adherent)",0.972,> 8,0.959,> 500,0.981,> 20000,0.975,> 5000
"SNU-182 (liver, adherent)",0.971,> 8,0.979,> 500,0.976,> 20000,0.986,> 5000
